Source: ChEMBL document CHEMBL4888484, “Replenishing the malaria drug discovery pipeline: Screening and hit evaluation of the MMV Hit Generation Library 1 (HGL1) against asexual blood stage Plasmodium falciparum ,using a nano luciferase reporter read-out” (2022)
Several values for one entry are separate records, joined by “and”; a condition that tells them apart may be missing. Equal entries are not always repeated. The campaign covered roughly 150,000 compounds. About 540 (0.36%) showed an effect of 50% or more. The list shows a part of the results.

System: Plasmodium falciparum
Experiment: Primary screen in NF54 nanoGlo assay, in single point, at 2uM, 72h; a lower Z score goes with more inhibition
Type: functional, Erythrocyte
Details: timepoint 72 hour

In the case of `CCCN1CC2(CCN(c3nccnc3N(C)C)CC2)C[C@H]1C(=O)O`, the “% Inhibition” value is reported as 2% and the Z score is reported as -0.32.
With `CCOc1ccccc1-c1nc(-c2cc(C)n(-c3c(C)n(C)n(-c4ccccc4)c3=O)c2C)cs1` the “% Inhibition” value was -2% and the Z score was 0.43.
In the case of `Cc1cccc(N[C@H](c2ccccn2)c2c(C)[nH]c3ccc(NC(=O)c4ccc(F)cc4)cc23)n1`, the “% Inhibition” value is reported as 0% and the Z score is reported as -0.06.
With `c1cn([C@@H]2COC[C@@H]2NCc2ccc3cn[nH]c3c2)nn1` the “% Inhibition” value was -14% and the Z score was 2.05.
In the case of `CCCCOc1c(OC)cccc1[C@H]1CC(=O)Nc2c1c(C)nn2-c1nc2ccccc2s1`, the “% Inhibition” value is reported as -2% and the Z score is reported as 0.3.
With `O=C(CCc1cccnc1)N1CCC(c2ccncn2)CC1` the “% Inhibition” value was -4% and the Z score was 0.41.
For `COc1ccc(C)nc1NC(=O)NC(c1nccn1C)c1nccn1C`, the “% Inhibition” value was -5% and the Z score was 0.92.
For `COc1cc(-c2cccc(C(=O)N[C@H]3CCNC3=O)c2)cc(OC)c1OC`, the “% Inhibition” value was 0% and the Z score was 0.05.
In the case of `O=C(CCN1CCOC[C@@H](O)C1)NCc1ccc(F)cc1`, the “% Inhibition” value is reported as 0% and the Z score is reported as -0.08.
With `Cn1ncc(C2CC2)c1C(=O)Nc1cc(C(F)(F)F)n[nH]1` the “% Inhibition” value was 0% and the Z score was -0.01.
With `CC(C)CN1CCNC(=O)[C@@H]1CC(=O)NCCc1nc(-c2ccccc2)no1` the “% Inhibition” value was 3% and the Z score was -0.37.
`O=C(NCCNC(=O)c1nc(CCn2ccc3ccccc32)no1)c1ccco1` was tested, and the “% Inhibition” value was -15% and the Z score was 1.83.
For `COCCN(C[C@H]1CCCO1)C(=O)c1cccc(-c2ccc3c(c2)CCO3)c1`, the “% Inhibition” value was 0% and the Z score was -0.03.
With `C[C@@H](CN1CCOCC1)NC(=O)N(Cc1ccccc1F)C1CCC1` the “% Inhibition” value was 6% and the Z score was -0.74.
With `CS(=O)(=O)N1CCc2cc(NC(=O)Nc3cccc(Cl)c3)ccc21` the “% Inhibition” value was 3% and the Z score was -0.51.
In the case of `CN(CCNC(=O)c1cc(C#N)cs1)C(=O)c1cc(C#N)cs1`, the “% Inhibition” value is reported as -16% and the Z score is reported as 2.12.
For `COCc1cccc(N2C(=O)CC(C3C=C(C)C4C(=O)N(c5cccc(COC)c5)C(=O)C4C3)C2=O)c1` (stereo not given), the “% Inhibition” value was -6% and the Z score was 0.74.
`CC(C)(C)OC(=O)N1CCC(C#CC(=O)NCCCCO)CC1` was tested, and the “% Inhibition” value was 7% and the Z score was -0.6.
`CCn1nccc1[C@@H]1CCCN1S(=O)(=O)c1cc(OC)ccc1OC` was tested, and the “% Inhibition” value was -7% and the Z score was 1.4.
For `CCc1[nH]nc(-c2cc(OC)c(OC)c(OC)c2)c1NC(=O)C1CCC1`, the “% Inhibition” value was -3% and the Z score was 0.65.
In the case of `C[C@@H]1Oc2ccccc2CN(c2cccc(C#N)c2)C1=O`, the “% Inhibition” value is reported as -1% and the Z score is reported as 0.11.
In the case of `Cc1noc(CCNC(=O)N2CCC[C@H](N(C)C(=O)OC(C)(C)C)C2)n1`, the “% Inhibition” value is reported as 2% and the Z score is reported as -0.24.
With `Cc1cc(NC(=O)c2cccc(S(=O)(=O)NC3CC3)c2)no1` the “% Inhibition” value was 37% and the Z score was -5.04.
With `COc1ccc(Cn2c(N)c(C(=O)NCc3ccc(C)cc3)sc2=S)cc1` the “% Inhibition” value was -10% and the Z score was 1.54.
With `CCn1nc2n(c1=O)-c1cc(C)ccc1OC2` the “% Inhibition” value was 3% and the Z score was -0.34.
With `CC1(CS(=O)(=O)NCCNC(=O)c2ccc(Cl)cc2)CC1` the “% Inhibition” value was -15% and the Z score was 2.
With `COCC(NC(C)c1ncc(C)s1)C(C)C` (stereo not given) the “% Inhibition” value was -11% and the Z score was 1.01.
With `CN(C)CCN(C)C(=O)CO[C@H](c1ccccc1)C(F)(F)F` the “% Inhibition” value was -9% and the Z score was 1.77.
In the case of `Cc1nn(C(F)F)c(C)c1S(=O)(=O)N1CCNCC1`, the “% Inhibition” value is reported as -9% and the Z score is reported as 1.8.
For `COc1cc(CN2CCC2)ccc1OC[C@@H](O)CN1CCCCCCC1`, the “% Inhibition” value was -10% and the Z score was 1.97.
In the case of `CN(Cc1cnn(C)c1)c1c(C#N)cnc2c(F)cc(F)cc12`, the “% Inhibition” value is reported as 6% and the Z score is reported as -0.57.
`CC1CN(C(=O)c2cccc3cn[nH]c23)CC(C)O1` (stereo not given) was tested, and the “% Inhibition” value was -2% and the Z score was 0.33.
With `Cn1nc(-c2ccccc2)nc1C(=O)N1CCC[C@H]1c1nc2ccccc2s1` the “% Inhibition” value was -9% and the Z score was 1.23.
`COc1ccc(S(=O)(=O)N2CC(=O)N(C3CC3)[C@](C)(C(=O)NCc3ccccc3OC)C2)cc1` was tested, and the “% Inhibition” value was -15% and the Z score was 1.93.
In the case of `COc1ccccc1[C@@H](O)CNC(=O)NCCc1csc(C)n1`, the “% Inhibition” value is reported as -17% and the Z score is reported as 2.15.
`CC1(C)C(CNC(=O)[C@]2(C)CCCCO2)C1(C)C` was tested, and the “% Inhibition” value was -9% and the Z score was 1.21.
`O=C(c1cc(=O)c(OCc2ccccc2Cl)c[nH]1)N1CCCC1` was tested, and the “% Inhibition” value (2 µM) was -3% and 2%.
`N#Cc1cccc(CN2C[C@@H](CO)[C@H](NC(=O)c3ccccc3)C2)c1` was tested, and the “% Inhibition” value was -14% and the Z score was 2.43.
For `COC(=O)[C@H]1CN(c2nccn3cnnc23)C[C@@H]1c1ccc(O)cc1`, the “% Inhibition” value was -12% and the Z score was 1.54.
In the case of `OC1CCN([C@H]2CCN(Cc3cccc(Cl)c3)C[C@@H]2O)CC1`, the “% Inhibition” value is reported as -8% and the Z score is reported as 1.55.
`CN1CC[C@H](Nc2ccc(OCc3ccccn3)c(F)c2)C1=O` was tested, and the “% Inhibition” value was -8% and the Z score was 1.21.
`Cc1cccnc1NC(=O)c1cc(O)ncn1` was tested, and the “% Inhibition” value was -11% and the Z score was 1.82.
With `CC1COCCN1CC(=O)N1CCCC1c1cccs1` (stereo not given) the “% Inhibition” value was 3% and the Z score was -0.37.
`Cc1ccc(-c2nc(CCN(C)C(=O)CC3CCCC3)no2)cc1` was tested, and the “% Inhibition” value was -7% and the Z score was 0.68.
With `Cc1ccc(-c2nc(Cn3nnc(-c4nc(-c5ccc6c(c5)OCO6)no4)c3C)c(C)o2)cc1` the “% Inhibition” value was 0% and the Z score was 0.06.
In the case of `CC1CC(=O)CC(C2CC2)N1C(=O)[C@H]1CCCO1` (stereo not given in full), the “% Inhibition” value is reported as -9% and the Z score is reported as 1.68.
With `Cc1nc([C@H]2CCCN2C(=O)c2cc(C(F)(F)F)n(C)n2)cs1` the “% Inhibition” value was 7% and the Z score was -1.01.
With `Cc1ccc(C(=O)N2CCCCCNC(=O)[C@@H]3CCC[C@@H]32)cn1` the “% Inhibition” value was -4% and the Z score was 0.54.
`O=C(c1ccccc1)c1nccn1CC(=O)N1CCCCC1` was tested, and the “% Inhibition” value was -8% and the Z score was 1.15.
In the case of `Cc1cn2c(n1)CN(Cc1cscc1Cl)CC2`, the “% Inhibition” value is reported as -15% and the Z score is reported as 1.55.
For `NC(=O)c1ncc(Br)cc1N1CCC[C@H](F)C1`, the “% Inhibition” value was -6% and the Z score was 0.95.
In the case of `Fc1ccccc1-c1noc(Cc2nnc(-c3cccc(Cl)c3)o2)n1`, the “% Inhibition” value is reported as 4% and the Z score is reported as -0.53.
With `O=C(N[C@H]1C[C@H](c2cc(N3CC[C@H](O)C3)ncn2)C1)c1cscn1` the “% Inhibition” value was -9% and the Z score was 1.06.
